Reference: the RNAGym collection of RNA variant scans (doi:10.1073/pnas.2313332121)
Variants at the background level are over-represented here.

B1: TPR 5TU (parent)
chain: GGAUCUUCUCGAUCUAACAAAAAAGACAAAUCUGCCACAAAGCUUGAGAGCAUCUUCGGAUGCAGAGGCGGCAGCCUUCGGUGGCGCGAUAGCGCCAACGUUCUCAACUAUGACACGCAAAACGCGUGCUCCGUUGAAUGGAGUUUAUCAUG

Variants of: B1
Experiment: polymerase ribozyme fitness, log enrichment relative to wild type (log ratio); higher = more active; in vitro selection for triplet polymerase activity
Summary of the method: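 Fitness measures genotype enrichment against wild-type enrichment on a logarithmic scale, with inverse-variance-weighted averaging of replicates. The logarithm is base 2, and genotypes were kept only with ≥10 input reads and ≥1 read per output in Illumina sequencing. The sequenced libraries came from one triplicate in vitro selection round, including frozen incubation at −7 °C, of PCR-built, transcribed mutant libraries of each subunit of a heterodimeric triplet polymerase ribozyme.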

| Variant | polymerase ribozyme fitness (log ratio) |
| --- | --- |
| GGAUCUUCUCGAUCUAACAAAAAAGACAAAUCUGCCACAAAGCUUGAGAGCAUCUUCGGAUGCAGAGGCGGCAGCCUUCGGUGGAGCGAUAGCGCCAACGUUCUCAACUAUGACACCAAAAACGCGUGCUCCGUUGAAUGGAGUUUUUCAUG [C85A G117C C118A A147U] | -0.0649 |
| GGAUCUUCUCGAUCUAACAAAAAAGACAAAUCUGCCACAAAGCUUGAGAGCAUCUUCGGAUGCAGAGGCGGCAGCCUUCGGUGGAGCGAUAGCGCCAACGUUCUCAACUAUGACACGCAAAACGCGUGCUCCGUUGAAUGGAGUUUAUCAUC [C85A G152C] | -2.88 |
| GGAUCUUCUCGAUCUAACAAAAAAGACAAAUCUGCCACAAAGCUUGAGAGCAUCUUCGGAUGCAGAGGCGGCAGCCUUCGGUGGAGUGAUAGCGCCACCGUUCUCAACUAUGACACGCAAAACGCGUGCUCCGUUGAAUGGAGUUUAUCAUG [C85A C87U A98C] | -3.62 |
| GGAUCUUCUCGAUCUAACAAAAAAGACAAAUCUGCCACAAAGCUUGAGAGCAUCUUCGGAUGCAGAGGCGGCAGCCUUCGGUGGAGCGAUAGCGCCAACGUUCUCAACUAUGACACGCAAAACGCGUGCUCCGUUAAAUGGAGUUUAUCAUG [C85A G136A] | -1.05 |
| GGAUCUUCUCGAUCUAACAAAAAAGACAAAUCUGCCACAAAGCUUGAGAGCAUCUUCGGAUGCAGAGGCGGCAGCCUUCGGUGGGGCGAUAGCGCCAACGUUCUCUCCUAUGACACGCAAAACGCGUGCUCCCUUGAAUGCAGUUUAUCAUG [C85G A106U A107C G133C G141C] | ≤ -4.2 |
| GGAUCUUCUCGAUCUAACAAAAAAGACAAAUCUGCCACAAAGCUUGAGAGCAUCUUCGGAUGCAGAGGCGGCAGCCUUCGGUGGAGGGAUAGCGCCAACGUUCUCAACUAUGACACGCAAAACGCGUGGUCCGUUGAAUGCAGUUUAUCAUG [C85A C87G C129G G141C] | ≤ -4.2 |
| GGAUCUUCUCGAUCUAACAAAAAAGACAAAUCUGCCACAAAGCUUGAGAGCAUCUUCGGAUGCAGAGGCGGCAGCCUUCGGUGGAGCGAUAGCGUCAACGUUCUCAAAUAUGACACGCAAAACGCGUGUUCCGUUGAAUGGAGUUUAACAUG [C85A C95U C108A C129U U148A] | ≤ -4.2 |
| GGAUCUUCUCGAUCUAACAAAAAAGACAAAUCUGCCACAAAGCUUGAGAGCAUCUUCGGAUGCAGAGGCGGCAGCCUUCGGUGGACCGAUAGCGCCAACGUUCUCAACUCUGACACGCAAAACGCGUGCUCCGUUGAAUGGAGUUUAUGAUG [C85A G86C A110C C149G] | ≤ -4.2 |
| GGAUCUUCUCGAUCUAACAAAAAAGACAAAUCUGCCACAAAGCUUGAGAGCAUCUUCGGAUGCAGAGGCGGCAGCCUUCGGUGGAGCGAUAGCGCCAACGUUCUCAACUAUGACACGCAAAACGCGUGCACGGUUGAAUGGAGUUUAUCAUG [C85A U130A C132G] | ≤ -4.2 |
| GGAUCUUCUCGAUCUAACAAAAAAGACAAAUCUGCCACAAAGCUUGAGAGCAUCUUCGGAUGCAGAGGCGGCAGCCUUCGGUGGAGCGAUAGCGCGUACGUUCUCAACUAUGACACGCAAAACGCGUGCUCCGUUGAAUGGAGUUUAUCAUG [C85A C96G A97U] | ≤ -4.2 |
| GGAUCUUCUCGAUCUAACAAAAAAGACAAAUCUGCCACAAAGCUUGAGAGCAUCUUCGGAUGCAGAGGCGGCAGCCUUCGGUGGAGCGAUAGCGCUAACGUUCUCAACUAUGACACGCCAAACGCGUGCUCCGUUGAAUGGAGUUUAUCAUG [C85A C96U A119C] | -0.783 |
| GGAUCUUCUCGAUCUAACAAAAAAGACAAAUCUGCCACAAAGCUUGAGAGCAUCUUCGGAUGCAGAGGCGGCAGCCUUCGGUGGAGCGAACGCGCCAACGUUCUCAACUAUGACACGCAAAACGCGUGCUCCGUUGAAUGGAGUUUCUCAUG [C85A U90A A91C A147C] | ≤ -4.2 |
| GGAUCUUCUCGAUCUAACAAAAAAGACAAAUCUGCCACAAAGCUUGAGAGCAUCUUCGGAUGCAGAGGCGGCAGCCUUCGGUGGAGCGAUAGAGCCAACGUUCUCAACUAUGACACGCAAAACGCGUGCUCCGUUGAAUGUAGUUUAUCAUG [C85A C93A G141U] | ≤ -4.2 |
| GGAUCUUCUCGAUCUAACAAAAAAGACAAAUCUGCCACAAAGCUUGAGAGCAUCUUCGGAUGCAGAGGCGGCAGCCUUCGGUGGAGCGAUAGCGCCAACGUUCUCAACUAUGACACGCAAUACGCGCGCUCCGUUGAAUGGAGUUUAUCAUG [C85A A121U U127C] | -1.47 |
| GGAUCUUCUCGAUCUAACAAAAAAGACAAAUCUGCCACAAAGCUUGAGAGCAUCUUCGGAUGCAGAGGCGGCAGCCUUCGGUGGAGCGAUAGGGCCAACGUUCUCAACUAUGACACGCAAAACGCGUGCUCCGUUGAAUGGAGUUUAUCAUG [C85A C93G] | ≤ -4.2 |
| GGAUCUUCUCGAUCUAACAAAAAAGACAAAUCUGCCACAAAGCUUGAGAGCAUCUUCGGAUGCAGAGGCGGCAGCCUUCGGUGGAGCGAUAGCGCCAACGUUCUCAACUAUGACACGCAAAACGCGUGCUCCGUUGAAUGGACUUUAUCAUG [C85A G143C] | -3.01 |
| GGAUCUUCUCGAUCUAACAAAAAAGACAAAUCUGCCACAAAGCUUGAGAGCAUCUUCGGAUGCAGAGGCGGCAGCCUUCGGUGGAGCGAUAGCGCCAACGUUCUCAACUAUGACACGCAAAACGCGUGCUCCGUUGAAUGGAUUUUAUCAUG [C85A G143U] | -2.37 |
| GGAUCUUCUCGAUCUAACAAAAAAGACAAAUCUGCCACAAAGCUUGAGAGCAUCUUCGGAUGCAGAGGCGGCAGCCUUCGGUGGAGCGAUAGCGCCAACGUUCUCAACUAUGACACGCAAAACGCGUGUUCCGUUGAAUGGAGUUUAUCAUG [C85A C129U] | -0.397 |
| GGAUCUUCUCGAUCUAACAAAAAAGACAAAUCUGCCACAAAGCUUGAGAGCAUCUUCGGAUGCAGAGGCGGCAGCCUUCGGUGGAGUGAUAGCGCCAACGGUCUCAACUAUGACACGCAAAACGCGUGCUCCGUUUAAUGGAGUUUAUCAUG [C85A C87U U101G G136U] | ≤ -4.2 |

| Variant | polymerase ribozyme fitness (log ratio) |
| --- | --- |
| GGAUCUUCUCGAUCUAACAAAAAAGACAAAUCUGCCACAAAGCUUGAGAGCAUCUUCGGAUGCAGAGGCGGCAGCCUUCGGUGGAGCGAGAGCGCCAACGUUCUCAACUAUGACACGCAAAACGCGUGCUCCGUUGAAUGGAGUUUAUCAUG [C85A U90G] | ≤ -4.2 |
| GGAUCUUCUCGAUCUAACAAAAAAGACAAAUCUGCCACAAAGCUUGAGAGCAUCUUCGGAUGCAGAGGCGGCAGCCUUCGGUGGAGCGAUAGCGCCAACGUUCUCAACUAUGACAGGCAAAACGCGUGCUCCGUUGAAUGGAGUUUAUCAUG [C85A C116G] | -0.2 |
| GGAUCUUCUCGAUCUAACAAAAAAGACAAAUCUGCCACAAAGCUUGAGAGCAUCUUCGGAUGCAGAGGCGGCAGCCUUCGGUGGAGCGAUAGUGCCAACGUUCUCAACUAUGACACGCAAAAGUCGUGCUCCGUUGAAUGGAGUUUAUCAUG [C85A C93U C123G G124U] | ≤ -4.2 |
| GGAUCUUCUCGAUCUAACAAAAAAGACAAAUCUGCCACAAAGCUUGAGAGCAUCUUCGGAUGCAGAGGCGGCAGCCUUCGGUGGAGGGAUAGCGCAAACGUUCUCAACUAUGACACGCAAAACGUGUGCUCCGUUGAAUGGAGUUUAUCAUG [C85A C87G C96A C125U] | ≤ -4.2 |
| GGAUCUUCUCGAUCUAACAAAAAAGACAAAUCUGCCACAAAGCUUGAGAGCAUCUUCGGAUGCAGAGGCGGCAGCCUUCGGUGGAGCGAUAGCCCCAACGUUCUCAACUAUGACACGCAAAACGCGUGCUCCGUUGAAUCGAGUUUAUCAUG [C85A G94C G140C] | ≤ -4.2 |
| GGAUCUUCUCGAUCUAACAAAAAAGACAAAUCUGCCACAAAGCUUGAGAGCAUCUUCGGAUGCAGAGGCGGCAGCCUUCGGUGGAGCGAUAGCGCCAACGUUCUCAACUAUGACACGCAAAACGCUUGCUCCGUUGAAUCGAGUUUAUCAUG [C85A G126U G140C] | ≤ -4.2 |
| GGAUCUUCUCGAUCUAACAAAAAAGACAAAUCUGCCACAAAGCUUGAGAGCAUCUUCGGAUGCAGAGGCGGCAGCCUUCGGUGGAGCGAUAGCGCCAACGUUCUCAACUAUGACACGCAAAACGCGUGCUCCGUUGAAUGAAGUUUAUCAUG [C85A G141A] | -1.85 |
| GGAUCUUCUCGAUCUAACAAAAAAGACAAAUCUGCCACAAAGCUUGAGAGCAUCUUCGGAUGCAGAGGCGGCAGCCUUCGGUGGAGCGAUAGCGCCAACGUUCUCAACUAUGACACGCAAAACGCGUGCUCCGUUGAAUGCAGUUUAUCAUG [C85A G141C] | -1.46 |
| GGAUCUUCUCGAUCUAACAAAAAAGACAAAUCUGCCACAAAGCUUGAGAGCAUCUUCGGAUGCAGAGGCGGCAGCCUUCGGUGGAGCGAUAGCGCCAACGUUCUCAACUAUGACACGCAAAACGCGUGCUCCGUUGAAAGGAGUUUAUCAUG [C85A U139A] | ≤ -4.2 |
| GGAUCUUCUCGAUCUAACAAAAAAGACAAAUCUGCCACAAAGCUUGAGAGCAUCUUCGGAUGCAGAGGCGGCAGCCUUCGGUGGAGCGAUAGCGCCAACGUUCUCAACUAUGACACGCAAAACGCGUGCUCCGUUGAAGGGAGUUUAUCAUG [C85A U139G] | -1.11 |
| GGAUCUUCUCGAUCUAACAAAAAAGACAAAUCUGCCACAAAGCUUGAGAGCAUCUUCGGAUGCAGAGGCGGCAGCCUUCGGUGGGGCGCUAGCGCCAACGUUCUCAACUAUGACACGCAAAACGCGUGCUCCGUUGAAUGGAGUUUAUCAUG [C85G A89C] | ≤ -4.2 |
| GGAUCUUCUCGAUCUAACAAAAAAGACAAAUCUGCCACAAAGCUUGAGAGCAUCUUCGGAUGCAGAGGCGGCAGCCUUCGGUGGAUCGUUGGCGCCAACGUUCUCAACUAUGACACGCAAAACGCGUGCUCCGUUGAAUGGAGUUUAUCAUG [C85A G86U A89U A91G] | ≤ -4.2 |
| GGAUCUUCUCGAUCUAACAAAAAAGACAAAUCUGCCACAAAGCUUGAGAGCAUCUUCGGAUGCAGAGGCGGCAGCCUUCGGUGGAGCGAUAGCGGCAACGAUCUCAACUAUGACACGUAAAACGCGUGCUCCGUUGAAUGGAGUUUAUCAUG [C85A C95G U101A C118U] | ≤ -4.2 |
| GGAUCUUCUCGAUCUAACAAAAAAGACAAAUCUGCCACAAAGCUUGAGAGCAUCUUCGGAUGCAGAGGCGGCAGCCUUCGGUGGAGCGACAGCGCCAACGUUCUCAACUAUGACAAGCAAUACUCCUGCUCCGUUUAAUGGAGUUUAUCAUG [C85A U90C C116A A121U G124U G126C G136U] | ≤ -4.2 |
| GGAUCUUCUCGAUCUAACAAAAAAGACAAAUCUGCCACAAAGCUUGAGAGCAUCUUCGGAUGCAGAGGCGGCAGCCUUCGGUGGGGCGAUAGCGCCAACGUUCUCACCUAUGACACGCAAAACGCGUGCUCCGUUGAAUGGAGUUUAUCAUG [C85G A107C] | ≤ -4.2 |
| GGAUCUUCUCGAUCUAACAAAAAAGACAAAUCUGCCACAAAGCUUGAGAGCAUCUUCGGAUGCAGAGGCGGCAGCCUUCGGUGGAGCGAUAACGCCAACGUUCUCUUCUAUGACACGCAAAACGCGUGCUCCGUUGAAUGGAGUUUAUCAUG [C85A G92A A106U A107U] | ≤ -4.2 |
| GGAUCUUCUCGAUCUAACAAAAAAGACAAAUCUGCCACAAAGCUUGAGAGCAUCUUCGGAUGCAGAGGCGGCAGCCUUCGGUGGAGCGAUAGCGCCAACGUUCUCAACUAUGACACGCAAAACGCGUGCUCCGUUGAUUGGAGUUUAUCAUG [C85A A138U] | ≤ -4.2 |
| GGAUCUUCUCGAUCUAACAAAAAAGACAAAUCUGCCACAAAGCUUGAGAGCAUCUUCGGAUGCAGAGGCGGCAGCCUUCGGUGGAGCGAUAGCGCCAACGUUCUCAACUAUGACACGUAAAACGCGUGCUCCGUUGAAUGGAGUUUAUCAUG [C85A C118U] | -0.342 |
| GGAUCUUCUCGAUCUAACAAAAAAGACAAAUCUGCCACAAAGCUUGAGAGCAUCUUCGGAUGCAGAGGCGGCAGCCUUCGGUGGAGCGAUAGCGCCAACGUUCUCAACUAUGACACGGAAAACGCGUGCUCCGUUGAAUGGAGUUUAUCAUG [C85A C118G] | -0.907 |
